Test results from PMC4807998.
Results are given in words; binding and its absence hold for the method and conditions named. Binding seen in cells or lysates may run through a third protein. Some entries that bind do so weakly or less than the wild type.

T1: TGFβ type I receptor (TβRI), endogenous, full length (human (endogenous in PC-3U)) (UniProt P36897)
T1 sequence: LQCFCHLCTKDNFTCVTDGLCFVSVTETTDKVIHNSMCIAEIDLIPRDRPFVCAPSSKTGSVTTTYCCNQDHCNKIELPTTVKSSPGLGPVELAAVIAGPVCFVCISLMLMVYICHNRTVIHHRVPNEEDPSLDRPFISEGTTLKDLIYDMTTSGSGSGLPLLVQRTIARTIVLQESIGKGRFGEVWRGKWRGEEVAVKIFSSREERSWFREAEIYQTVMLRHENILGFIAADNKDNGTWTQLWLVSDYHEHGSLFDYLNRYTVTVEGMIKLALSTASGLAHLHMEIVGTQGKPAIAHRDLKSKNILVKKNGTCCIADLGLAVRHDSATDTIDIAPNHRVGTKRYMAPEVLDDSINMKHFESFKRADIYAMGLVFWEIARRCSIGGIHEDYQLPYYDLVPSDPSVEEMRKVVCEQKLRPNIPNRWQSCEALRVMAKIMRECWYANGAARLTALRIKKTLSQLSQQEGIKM

T2: APPL1 (endogenous) (human (endogenous in PC-3U)) (UniProt Q9UKG1)
T2 sequence: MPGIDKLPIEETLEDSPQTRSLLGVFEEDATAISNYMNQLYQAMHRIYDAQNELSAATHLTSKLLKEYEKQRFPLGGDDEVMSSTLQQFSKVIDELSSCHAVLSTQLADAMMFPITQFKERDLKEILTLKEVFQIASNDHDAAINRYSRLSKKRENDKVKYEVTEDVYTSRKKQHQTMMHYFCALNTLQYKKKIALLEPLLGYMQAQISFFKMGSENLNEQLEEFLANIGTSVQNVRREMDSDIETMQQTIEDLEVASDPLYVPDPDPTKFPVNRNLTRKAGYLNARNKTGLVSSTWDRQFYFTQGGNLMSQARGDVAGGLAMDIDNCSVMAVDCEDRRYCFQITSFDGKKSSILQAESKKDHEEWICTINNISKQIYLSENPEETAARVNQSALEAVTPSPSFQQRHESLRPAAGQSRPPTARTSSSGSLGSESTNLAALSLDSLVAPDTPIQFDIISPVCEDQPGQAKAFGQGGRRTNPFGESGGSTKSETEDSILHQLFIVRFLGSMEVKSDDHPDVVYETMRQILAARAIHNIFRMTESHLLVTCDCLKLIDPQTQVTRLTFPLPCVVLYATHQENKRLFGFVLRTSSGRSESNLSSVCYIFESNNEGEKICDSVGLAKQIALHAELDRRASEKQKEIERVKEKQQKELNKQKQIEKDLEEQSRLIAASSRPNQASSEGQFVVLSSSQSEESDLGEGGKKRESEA


Key:
[1] = molecular target: T1, TGFβ type I receptor (TβRI), endogenous, full length (human (endogenous in PC-3U)); experiment: proximity ligation; brightfield in situ PLA on sections of prostate cancer tissue of patients; endogenous APPL1 and TβRI
[2] = molecular target: T1, TGFβ type I receptor (TβRI), endogenous, full length (human (endogenous in PC-3U)); experiment: proximity ligation; in situ PLA (Duolink) on PC-3U cells depleted of TRAF6 by siRNA; endogenous APPL1 and TβRI
[3] = molecular target: T1, TGFβ type I receptor (TβRI), endogenous, full length (human (endogenous in PC-3U)); experiment: co-IP; PC-3U whole-cell lysates, IP with TβRI antibody V22, blot for APPL1; endogenous proteins; cells with or without TGFβ, LY294002, wortmannin or SB 505124
[4] = molecular target: T1, TGFβ type I receptor (TβRI), endogenous, full length (human (endogenous in PC-3U)); experiment: proximity ligation; in situ PLA (Duolink) on fixed, permeabilised PC-3U cells treated or not with TGFβ for 30 min; endogenous proteins; immunofluorescence and brightfield
[5] = molecular target: T2, APPL1 (endogenous) (human (endogenous in PC-3U)); experiment: co-IP; PC-3U whole-cell lysates of cells with TRAF6 knocked down by siRNA, IP with APPL1 antibody, blot for PKCζ
[6] = molecular target: T2, APPL1 (endogenous) (human (endogenous in PC-3U)); experiment: as above; remark: listed apart in the source
[7] = molecular target: T2, APPL1 (endogenous) (human (endogenous in PC-3U)); experiment: co-IP; PC-3U whole-cell lysates, IP with APPL1 antibody, blot for PKCζ or β-tubulin; endogenous proteins; cells with or without TGFβ, control or TRAF6 siRNA
[8] = molecular target: T2, APPL1 (endogenous) (human (endogenous in PC-3U)); experiment: proximity ligation; in situ PLA (Duolink) on fixed, permeabilised PC-3U cells treated or not with TGFβ for 30 min; endogenous proteins; immunofluorescence and brightfield

binding [1] | binding [3] | binding [4] | binding [5] | binding [7] | binding [8] | Binder | binding [2] | binding [6]
binds | binds | binds |  |  |  | APPL1 (endogenous) (protein, UniProt Q9UKG1 1-709) MPGIDKLPIEETLEDSPQTRSLLGVFEEDATAISNYMNQLYQAMHRIYDAQNELSAATHLTSKLLKEYEKQRFPLGGDDEVMSSTLQQFSKVIDELSSCHAVLSTQLADAMMFPITQFKERDLKEILTLKEVFQIASNDHDAAINRYSRLSKKRENDKVKYEVTEDVYTSRKKQHQTMMHYFCALNTLQYKKKIALLEPLLGYMQAQISFFKMGSENLNEQLEEFLANIGTSVQNVRREMDSDIETMQQTIEDLEVASDPLYVPDPDPTKFPVNRNLTRKAGYLNARNKTGLVSSTWDRQFYFTQGGNLMSQARGDVAGGLAMDIDNCSVMAVDCEDRRYCFQITSFDGKKSSILQAESKKDHEEWICTINNISKQIYLSENPEETAARVNQSALEAVTPSPSFQQRHESLRPAAGQSRPPTARTSSSGSLGSESTNLAALSLDSLVAPDTPIQFDIISPVCEDQPGQAKAFGQGGRRTNPFGESGGSTKSETEDSILHQLFIVRFLGSMEVKSDDHPDVVYETMRQILAARAIHNIFRMTESHLLVTCDCLKLIDPQTQVTRLTFPLPCVVLYATHQENKRLFGFVLRTSSGRSESNLSSVCYIFESNNEGEKICDSVGLAKQIALHAELDRRASEKQKEIERVKEKQQKELNKQKQIEKDLEEQSRLIAASSRPNQASSEGQFVVLSSSQSEESDLGEGGKKRESEA | no binding (condition: cells depleted of TRAF6 by siRNA) | 
 |  |  | binds | binds | binds | PKCζ (endogenous) (enzyme, UniProt Q05513 1-592) MPSRTGPKMEGSGGRVRLKAHYGGDIFITSVDAATTFEELCEEVRDMCRLHQQHPLTLKWVDSEGDPCTVSSQMELEEAFRLARQCRDEGLIIHVFPSTPEQPGLPCPGEDKSIYRRGARRWRKLYRANGHLFQAKRFNRRAYCGQCSERIWGLARQGYRCINCKLLVHKRCHGLVPLTCRKHMDSVMPSQEPPVDDKNEDADLPSEETDGIAYISSSRKHDSIKDDSEDLKPVIDGMDGIKISQGLGLQDFDLIRVIGRGSYAKVLLVRLKKNDQIYAMKVVKKELVHDDEDIDWVQTEKHVFEQASSNPFLVGLHSCFQTTSRLFLVIEYVNGGDLMFHMQRQRKLPEEHARFYAAEICIALNFLHERGIIYRDLKLDNVLLDADGHIKLTDYGMCKEGLGPGDTTSTFCGTPNYIAPEILRGEEYGFSVDWWALGVLMFEMMAGRSPFDIITDNPDMNTEDYLFQVILEKPIRIPRFLSVKASHVLKGFLNKDPKERLGCRPQTGFSDIKSHAFFRSIDWDLLEKKQALPPFQPQITDDYGLDNFDTQFTSEPVQLTPDDEDAIKRIDQSEFEGFEYINPLLLSTEESV |  | no binding (condition: knockdown of TRAF6 by siRNA)
